# From the supplement of paper PMC12217912
# This is one part of the list. Sequences were assembled here from the parent chain. Values near 0.05 are background.
# B1: TEV protease; numbered along this chain (parent)
# chain: MGESLFKGPRDYNPISSSICHLTNESDGHTTSLYGIGFGPFIITNKHLFRRNNGTLVVQSLHGVFKVKDTTTLQQHLVDGRDMIIIRMPKDFPPFPQKLKFREPQREERICLVTTNFQTKSMSSMVSDTSCTFPSGDGIFWKHWIQTKDGQCGSPLVSTRDGFIVGIHSASNFTNTNNYFTSVPKNFMELLTNQEAQQWVSGWRLNADSVLWGGHKVFMVKPEEPFQPVKEATQL
# Variants of: B1
# Test: raw area under fraction-flipped curve 0-4 h after induction (AUC4h, not background-subtracted), DNA-recorder readout of cleavage of the substrate (dimensionless); higher = more cleavage of the substrate by the protease variant
# Conditions: temperature: 34 °C; time window: 0-4 h after rhamnose induction
# Experimental: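 In vivo DNA recorder in E. coli TOP10(DE3) ΔrhaA at 34 °C. Each TEVp single-site mutant (parent TEVp 0) is paired with a single-site variant of the 7-mer TEVs (canonical ENLYFQ|S). The substrate sits between flexible linkers in a Bxb1-sfGFP-TEVs-SsrA fusion, so cleavage stabilises Bxb1 and speeds flipping of a recombination array, read by NGS. The value is the raw area under the fraction-flipped curve over 0-4 h after rhamnose induction (AUC4h), with ≥20 reads per time point. It is not background-subtracted; inactive controls average about 0.047.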
# 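Further: Bxb1 expression induced with 0.2% (w/v) L-rhamnose at OD600 near 0.5, cultures sampled hourly, flipped fraction per protease–substrate barcode pair counted by paired-end Illumina sequencing.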
Variant,area with substrate ENCYFQS,area with substrate ENDYFQS,area with substrate ENEYFQS,area with substrate ENGYFQS,area with substrate ENNYFQS,area with substrate ENPYFQS,area with substrate ENQYFQS,area with substrate ENRYFQS,area with substrate ENTYFQS,area with substrate ENVYFQS,area with substrate ENKYFQS,area with substrate ENFYFQS,area with substrate ENHYFQS,area with substrate ENIYFQS,area with substrate ENAYFQS,area with substrate ENMYFQS,area with substrate ENSYFQS,area with substrate ENWYFQS,area with substrate ENYYFQS
S130D,0.0476,0.0623,0.0632,0.061,0.0752,0.0595,0.0497,0.067,0.0691,0.0923,–,–,–,–,–,–,–,–,–
M125S,0.0709,0.074,0.0649,–,0.056,–,0.0709,–,–,–,0.054,–,–,–,–,–,–,–,–
P9K,0.0606,0.0635,–,–,–,–,0.0337,0.032,0.064,0.085,–,0.0667,0.0573,0.109,–,–,–,–,–
R81M,0.0408,0.0647,0.0606,0.0633,0.0513,–,0.0612,0.0611,0.0481,0.0719,0.0652,0.0577,0.0594,–,0.0513,0.0755,0.0628,0.0417,0.13
S60R,0.0581,0.0566,0.0713,0.0582,0.0635,–,0.0689,0.056,0.0626,0.0537,0.0547,0.0547,–,–,–,–,0.0597,0.0208,0.0644
K142P,0.0647,0.0408,0.0512,0.0599,0.0521,0.06,0.0664,0.0529,0.0538,0.0674,0.0713,0.0516,–,0.0707,0.0559,0.0712,0.0584,–,0.0533
G28K,0.0601,0.0453,0.0565,–,0.0624,–,0.0541,0.0536,0.0528,0.0622,0.0599,0.0627,–,0.0855,–,–,0.0627,–,0.0735
T174P,0.0565,0.0586,0.0627,–,0.0584,–,0.0666,–,0.071,0.0555,0.0532,–,–,–,–,0.0666,–,–,–
N52K,0.0546,0.0651,0.0709,0.0537,0.0592,–,0.057,–,0.059,0.0689,0.0593,0.0576,0.0651,–,–,–,0.0643,0.0479,–
F38N,–,0.0579,0.0511,–,0.0452,0.0528,0.0559,–,0.0496,0.067,–,–,0.059,0.0503,0.054,0.0645,0.056,–,–
S135G,0.0587,0.0696,0.0771,0.0625,0.0651,0.0566,0.0582,0.0577,0.0517,0.0619,–,0.0634,0.0749,0.0576,0.0603,–,0.0557,–,0.0578
L33G,0.0721,0.0569,0.0669,0.0619,0.0451,–,0.0682,0.0671,0.0626,0.0645,0.0666,0.0678,0.0585,0.131,–,0.0711,0.0696,–,0.0675
L77G,0.0446,0.0547,0.0647,0.0758,0.0479,0.0408,0.059,0.0544,–,0.0601,0.0577,0.0661,0.0763,0.0757,–,0.0729,0.0607,–,–
S154M,0.0704,0.0788,–,0.0675,0.0687,0.0856,0.0647,0.0504,–,–,0.0673,–,0.0577,0.0859,–,–,0.0592,0.0288,–
G136Y,0.0588,0.0409,0.0706,–,0.0583,–,0.0523,0.0476,0.0592,0.0698,0.0559,0.0514,0.0619,0.12,–,0.0846,0.0606,–,0.0602
L156S,0.0638,0.0464,0.066,0.0387,–,–,0.0576,–,–,0.0652,–,0.0627,0.0449,0.0668,–,0.059,0.0611,–,–
T147G,0.0705,0.0514,0.0588,0.0568,–,–,0.0487,0.0639,0.0644,0.062,–,–,–,–,–,–,–,–,–
N45C,0.0615,0.0616,0.0629,0.0692,0.0586,0.055,0.0585,0.0742,0.0641,0.0866,0.0465,0.0468,0.0624,–,–,0.056,0.0493,0.0638,0.0594
V183R,0.0557,–,–,–,–,0.0481,0.0808,–,–,0.0493,0.0673,–,0.0569,0.0482,–,–,0.0417,0.0491,–
T70H,0.0576,0.0573,0.0635,0.0577,–,–,0.0538,–,0.0415,–,–,–,0.062,0.0631,–,0.0549,0.0615,–,0.066
V229I,0.0598,–,0.0391,0.0512,0.0542,–,–,–,0.0579,0.0767,–,0.065,0.0403,0.142,–,0.0924,0.0417,–,–
P225L,0.0612,0.0632,0.0765,0.0592,0.0708,–,0.0619,0.047,0.062,0.0686,0.0631,0.0577,0.0509,0.0911,–,–,–,0.0732,0.0653
T114K,0.0733,–,–,–,–,–,0.0577,–,–,0.0709,–,–,0.0346,–,0.0535,–,0.121,–,–
K68C,0.0702,0.0605,0.0565,0.0497,0.073,0.0559,–,–,–,0.0988,0.0709,0.0588,0.0543,–,0.0584,0.0494,0.0632,–,–
Q198W,0.0677,0.06,0.0568,0.0561,0.0602,0.0534,0.0641,0.0511,–,0.0895,–,–,0.047,0.0688,–,–,0.0677,0.0104,0.0606
D91F,0.0668,0.0594,0.0556,0.0599,–,0.0706,0.0528,0.0666,0.0607,0.0729,0.0587,0.0581,–,0.135,–,0.0875,0.0661,–,0.0747
P14D,0.071,0.0739,0.065,–,0.0595,–,0.0694,–,–,0.093,0.0692,0.0332,–,0.1,0.0743,0.0694,0.0655,–,0.0722
F101K,0.0251,–,–,–,0.0371,–,0.0461,–,–,–,–,0.05,0.0382,–,–,–,0.0437,–,–
